Reference: US20220267409A1 (KAHR MEDICAL, published 2022)

Tests used:
[1] = biological target: T1, human recombinant PDL1 (GenScript) (human, UniProt Q9NZQ7 part only, limits assumed); experiment: sandwich ELISA: PDL1-coated plate, dilutions of supernatant, detection with biotinylated 4-1BB and streptavidin-HRP
T1 construct: Coated on ELISA plates; also called PDL1 protein; PDL1 coated plate
Description: (§1) Supernatants containing the heterodimers or control supernatant (from non-transfected Expi293F cells) were incubated in PDL1 or CD47 pre-coated 96 wells plate or a mix of both proteins at equal-molar quantity. Following incubation, detection was effected with biotinylated 4-1BBL. […] Detection was effected with a TMB substrate according to standard ELISA protocol using a Plate reader (Thermo Scientific, Multiscan FC) at 450 nm, with reference at 540 nm.
(§2) Methods—Ninety-six-wells plates were pre-coated by incubating overnight at 4° C. with a recombinant CD47 protein, PDL1 protein, HLA-G protein or a mix of two proteins at equal-molar quantity. Following blocking and washing, serially diluted supernatant containing the produced PD1-4-3xsc1BBL, SIRPα-PD1-3xsc4-1BBL, 2xLILRB2-3xsc4-1BBL or LILRB2-SIRPα-3xsc4-1BBL heterodimers were added to the relevant pre-coated wells. Following an additional washing step, biotinylated 4-1BB or rabbit anti-anti-SIRPα antibody was added and allowed to bind to the 4-1BBL arm or SIRPα arm, respectively, of the heterodimer. The plates were washed again and streptavidin-HRP or goat anti-rabbit IgG antibody-HRP was added. Detection was effected with a TMB substrate according to standard ELISA protocol using a plate reader (Thermo Scientific, Multiscan FC).

[2] = biological target: T2, biotin-conjugated human recombinant 4-1BB protein (GenScript) (human, UniProt Q07011 24-186, biotin-conjugated); experiment: as above
T2 construct: Detection reagent of the sandwich ELISA; also called biotinylated 4-1BB; 41BB-biotin
Description: as §1, §2

[3] = biological target: T3, human PDL1 expressed on DLD1-PDL1 cells (human, UniProt Q9NZQ7); experiment: flow cytometry on DLD1-PDL1 cells against DLD1 WT cells, dilutions of supernatant, detection with anti-4-1BBL antibody
T3 construct: whole, on cells; also called CD274; DLD1 PDL1 overexpressing cell line
Description: (§3) The binding of the heterodimer to the ligand expressing cell lines was determined by immuno-staining of its 4-1BBL domain using an anti-4-1BBL antibody following incubation of the cells with the indicated heterodimer, followed by flow cytometric analysis. GMFI values are presented and were used to create a binding curve graph with a GraphPad Prism software. […] The binding of the heterodimer to the cell lines was determined by immuno-staining of its PD1 domain using an anti-PD1 antibody following incubation of the cells with the indicated heterodimer, followed by flow cytometric analysis. GMFI values are presented and were used to create a binding curve graph with a GraphPad Prism software.
Methods—Cells were incubated with serial dilutions of the produced heterodimers-containing supernatants for 20 minutes at 4° C., followed by immuno-staining with conjugated antibody against 4-1BBL and analyzed by flow cytometry. In some cases, cells underwent pre-incubation with anti CD47 blocker antibody prior to the incubation with the supernatants.

[4] = biological target: T4, human 4-1BB expressed on HT1080-4-1BB cells (human, UniProt Q07011 24-255); experiment: flow cytometry on HT1080-4-1BB cells against HT1080 WT cells, dilutions of supernatant, detection with anti-PD1 antibody
T4 construct: whole, on cells; also called HT1080 4-1BB overexpressing cells
Description: as §3
(§4) Methods—Cells were incubated with serial dilutions of the produced heterodimers-containing supernatants for 20-30 minutes at 4° C., followed by immuno-staining with an antibody against PD1 or LILRB2 and analyzed by flow cytometry. In some cases, cells underwent pre-incubation with anti CD47 blocker antibody or anti-4-1BB blocker antibody prior to the incubation with the supernatants.

[5] = biological target: T4, human 4-1BB expressed on HT1080-4-1BB …; experiment: flow cytometry on HT1080-4-1BB cells, dilutions of supernatant, detection with anti-LILRB2 antibody
Description: The binding of the heterodimer to the receptor expressing cell line was determined following incubation of the cells with the heterodimer by immuno-staining of its LILRB2 domain using an anti-LILRB2 antibody, followed by flow cytometric analysis.
as §4

[6] = biological target: T2, biotin-conjugated human recombinant …; experiment: sandwich ELISA: HLA-G-coated plate, dilutions of supernatant, detection with 41BB-biotin and streptavidin-HRP
Description: Supernatants containing the heterodimer TSP214 or control supernatant (FIG. 28A) or purified TSP215 heterodimer (FIGS. 28B-C) were incubated in HLA-G, CD47 or BSA pre-coated 96-wells plates. Binding was detected by incubation with 41BB-biotin, followed by streptavidin-HRP and TMB substrate according to standard ELISA protocol using a plate reader at 450 nm, with reference at 620 nm.
as §2

Measured: binding result

B1: PD1-Fc-3xSc4-1BBL heterodimer DSP305 (SEQ ID NOs: 79 and 81) (Fc fusion)
chain 1: DSPDRPWNPPTFSPALLVVTEGDNATFTCSFSNTSESFVLNWYRMSPSNQTDKLAAFPEDRSQPGQDSRFRVTQLPNGRDFHMSVVRARRNDSGTYLCGAISLAPKAQIKESLRAELRVTERRAEVPTAHPSPSPRPAGQGGGGSGGGGSESKYGPPCPPCPAPEFEGGPSVFLFPPKPKDTLMISRTPEVTCVVVDVSQEDPEVQFNWYVDGVEVHNAKTKPREEQFNSTYRVVSVLTVLHQDWLNGKEYKCKVSNKGLPSSIEKTISKAKGQPREPQVYTLPPSQCEMTKNQVSLSCAVKGFYPSDIAVEWESNGQPENNYKTTPPVLDSDGSFFLVSRLTVDKSRWQEGNVFSCSVMHEALHNHYTQKSLSLSLGKGGGGSGGGGSAASPRLREGPELSPDDPAGLLDLRQGMFAQLVAQNVLLIDGPLSWYSDPGLAGVSLTGGLSYKEDTKELVVAKAGVYYVFFQLELRRVVAGEGSGSVSLALHLQPLRSAAGAAALALTVDLPPASSEARNSAFGFQGRLLHLSAGQRLGVHLHTEARARHAWQLTQGATVLGLFRVTPEIPAGLPSPRSEGGGGSGGGGSGGGGSAASPRLREGPELSPDDPAGLLDLRQGMFAQLVAQNVLLIDGPLSWYSDPGLAGVSLTGGLSYKEDTKELVVAKAGVYYVFFQLELRRVVAGEGSGSVSLALHLQPLRSAAGAAALALTVDLPPASSEARNSAFGFQGRLLHLSAGQRLGVHLHTEARARHAWQLTQGATVLGLFRVTPEIPAGLPSPRSEGGGGSGGGGSGGGGSAASPRLREGPELSPDDPAGLLDLRQGMFAQLVAQNVLLIDGPLSWYSDPGLAGVSLTGGLSYKEDTKELVVAKAGVYYVFFQLELRRVVAGEGSGSVSLALHLQPLRSAAGAAALALTVDLPPASSEARNSAFGFQGRLLHLSAGQRLGVHLHTEARARHAWQLTQGATVLGLFRVTPEIPAGLPSPRSE
chain 2: DSPDRPWNPPTFSPALLVVTEGDNATFTCSFSNTSESFVLNWYRMSPSNQTDKLAAFPEDRSQPGQDSRFRVTQLPNGRDFHMSVVRARRNDSGTYLCGAISLAPKAQIKESLRAELRVTERRAEVPTAHPSPSPRPAGQGGGGSGGGGS[human IgG4 Fc with S228P L235E Y349C T366W (EU numbers) omitted here]
notes: Knob-into-hole hIgG4 Fc heterodimer made in Expi293F cells; tested as culture supernatant; also called PD1-sc3x4-1BBL heterodimer; PD1-4-3xsc1BBL
binds: [1] | [2] | [3] | [4]

B2: heterodimer DSP214 (SEQ ID NOs: 138 and 142) (Fc fusion)
chain 1: QTGTIPKPTLWAEPDSVITQGSPVTLSCQGSLEAQEYRLYREKKSASWITRIRPELVKNGQFHIPSITWEHTGRYGCQYYSRARWSELSDPLVLVMTGAYPKPTLSAQPSPVVTSGGRVTLQCESQVAFGGFILCKEGEEEHPQCLNSQPHARGSSRAIFSVGPVSPNRRWSHRCYGYDLNSPYVWSSPSDLLELLVPGVSKKPSLSVQPGPVVAPGESLTLQCVSDVGYDRFVLYKEGERDLRQLPGRQPQAGLSQANFTLGPVSRSYGGQYRCYGAHNLSSECSAPSDPLDILITGQIRGTPFISVQPGPTVASGENVTLLCQSWRQFHTFLLTKAGAADAPLRLRSIHEYPKYQAEFPMSPVTSAHAGTYRCYGSLNSDPYLLSHPSEPLELVVSGGGGSGGGGSGGGGS[human IgG4 Fc with S228P L235E Y349C T366W (EU numbers) omitted here]
chain 2: QTGTIPKPTLWAEPDSVITQGSPVTLSCQGSLEAQEYRLYREKKSASWITRIRPELVKNGQFHIPSITWEHTGRYGCQYYSRARWSELSDPLVLVMTGAYPKPTLSAQPSPVVTSGGRVTLQCESQVAFGGFILCKEGEEEHPQCLNSQPHARGSSRAIFSVGPVSPNRRWSHRCYGYDLNSPYVWSSPSDLLELLVPGVSKKPSLSVQPGPVVAPGESLTLQCVSDVGYDRFVLYKEGERDLRQLPGRQPQAGLSQANFTLGPVSRSYGGQYRCYGAHNLSSECSAPSDPLDILITGQIRGTPFISVQPGPTVASGENVTLLCQSWRQFHTFLLTKAGAADAPLRLRSIHEYPKYQAEFPMSPVTSAHAGTYRCYGSLNSDPYLLSHPSEPLELVVSGGGGSGGGGSGGGGSESKYGPPCPPCPAPEFEGGPSVFLFPPKPKDTLMISRTPEVTCVVVDVSQEDPEVQFNWYVDGVEVHNAKTKPREEQFNSTYRVVSVLTVLHQDWLNGKEYKCKVSNKGLPSSIEKTISKAKGQPREPQVYTLPPSQCEMTKNQVSLSCAVKGFYPSDIAVEWESNGQPENNYKTTPPVLDSDGSFFLVSRLTVDKSRWQEGNVFSCSVMHEALHNHYTQKSLSLSLGKGGGGSGGGGSAASPRLREGPELSPDDPAGLLDLRQGMFAQLVAQNVLLIDGPLSWYSDPGLAGVSLTGGLSYKEDTKELVVAKAGVYYVFFQLELRRVVAGEGSGSVSLALHLQPLRSAAGAAALALTVDLPPASSEARNSAFGFQGRLLHLSAGQRLGVHLHTEARARHAWQLTQGATVLGLFRVTPEIPAGLPSPRSEGGGGSGGGGSGGGGSAASPRLREGPELSPDDPAGLLDLRQGMFAQLVAQNVLLIDGPLSWYSDPGLAGVSLTGGLSYKEDTKELVVAKAGVYYVFFQLELRRVVAGEGSGSVSLALHLQPLRSAAGAAALALTVDLPPASSEARNSAFGFQGRLLHLSAGQRLGVHLHTEARARHAWQLTQGATVLGLFRVTPEIPAGLPSPRSEGGGGSGGGGSGGGGSAASPRLREGPELSPDDPAGLLDLRQGMFAQLVAQNVLLIDGPLSWYSDPGLAGVSLTGGLSYKEDTKELVVAKAGVYYVFFQLELRRVVAGEGSGSVSLALHLQPLRSAAGAAALALTVDLPPASSEARNSAFGFQGRLLHLSAGQRLGVHLHTEARARHAWQLTQGATVLGLFRVTPEIPAGLPSPRSE
notes: Made in Expi293F cells; tested as culture supernatant; also called TSP214; 2xLILRB2-3xsc4-1BBL
binds: [5] | [6]
